# In the supplement of paper PMC8728848:
# Some of the results follow.
# Legend:
# Experiment in all cases: glycan array binding signal (z-score within array); higher = stronger binding
# Settings in all cases: glycan notation: IUPAC condensed, linker removed
# [1] = target: GalNAc(b1-3)Gal
# How it was run: (§1)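 From the Consortium for Functional Glycomics database, 3228 arrays were curated, keeping only those whose protein sequence was available. Binding is given as a within-array Z-score averaged across arrays sharing a protein sequence and across linkers. Negative Z-scores can be read as non-binding.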
# [2] = target: GalNAc(b1-3)Gal(a1-4)Gal(b1-4)GlcNAc
# How it was run: as §1
# [3] = target: GalNAc(b1-3)Gal(a1-4)Gal(b1-4)GlcNAc(b1-3)Gal(b1-4)Glc
# How it was run: as §1
# [4] = target: GalNAc(b1-3)Gal(a1-6)Gal(b1-4)Glc
# How it was run: as §1
# [5] = target: GalNAc(b1-3)GalNAc
# How it was run: as §1
# [6] = target: GalNAc(b1-3)GlcNAc
# How it was run: as §1
# [7] = target: GalNAc(b1-4)Gal(b1-4)Glc
# How it was run: as §1
# [8] = target: GalNAc(b1-4)GlcNAc
# How it was run: as §1
# [9] = target: GalNAc(b1-4)GlcNAc(b1-2)Man
# How it was run: as §1
# [10] = target: GalNAc(b1-4)GlcNAc(b1-2)Man(a1-3)[GalNAc(b1-4)GlcNAc(b1-2)Man(a1-6)]Man(b1-4)GlcNAc(b1-4)GlcNAc
# How it was run: as §1
# [11] = target: GalNAc(b1-4)GlcNAc(b1-3)GalNAc(b1-4)GlcNAc
# How it was run: as §1
# [12] = target: GalNAc(b1-4)GlcNAc6S
# How it was run: as §1
# [13] = target: GalNAc(b1-6)GalNAc
# How it was run: as §1
# [14] = target: GalNAc3S(b1-4)GlcNAc
# How it was run: as §1
# [15] = target: GalNAc3S(b1-4)GlcNAc3S
# How it was run: as §1
# [16] = target: GalNAc3S(b1-4)[Fuc(a1-3)]GlcNAc
# How it was run: as §1
# [17] = target: GalNAc4S6S(b1-4)GlcNAc
# How it was run: as §1
# [18] = target: GalNAc6S(b1-4)GlcNAc
# How it was run: as §1
# [19] = target: Glc(a1-4)Glc
# How it was run: as §1
# [20] = target: Glc(a1-4)Glc(a1-4)Glc(a1-4)Glc
# How it was run: as §1
# [21] = target: Glc(a1-6)Glc(a1-6)Glc
# How it was run: as §1
# [22] = target: Glc(a1-6)Glc(a1-6)Glc(a1-6)Glc
# How it was run: as §1
# [23] = target: Glc(b1-4)Glc
# How it was run: as §1
# [24] = target: Glc(b1-6)Glc
# How it was run: as §1
# [25] = target: GlcA(b1-3)Gal
# How it was run: as §1
# [26] = target: GlcA(b1-3)GlcNAc
# How it was run: as §1
# [27] = target: GlcA(b1-6)Gal
# How it was run: as §1
# [28] = target: GlcA3S(b1-3)Gal(b1-4)GlcNAc(b1-2)Man
# How it was run: as §1
# [29] = target: GlcA3S(b1-3)Gal(b1-4)GlcNAc(b1-3)Gal(b1-4)Glc
# How it was run: as §1
# [30] = target: GlcNAc(a1-3)Gal(b1-4)GlcNAc
# How it was run: as §1
# [31] = target: GlcNAc(a1-4)Gal(b1-3)GlcNAc
# How it was run: as §1
# [32] = target: GlcNAc(a1-4)Gal(b1-4)GalNAc
# How it was run: as §1
# [33] = target: GlcNAc(a1-4)Gal(b1-4)GlcNAc
# How it was run: as §1
# [34] = target: GlcNAc(a1-4)Gal(b1-4)GlcNAc(b1-3)Gal(b1-4)Glc
# How it was run: as §1
# [35] = target: GlcNAc(a1-4)Gal(b1-4)GlcNAc(b1-3)Gal(b1-4)GlcNAc
# How it was run: as §1
# [36] = target: GlcNAc(a1-4)Gal(b1-4)GlcNAc(b1-3)Gal(b1-4)GlcNAc(b1-3)Gal(b1-4)GlcNAc
# How it was run: as §1
# [37] = target: GlcNAc(a1-4)Gal(b1-4)GlcNAc(b1-3)Gal(b1-4)[Fuc(a1-3)]GlcNAc(b1-3)Gal(b1-4)[Fuc(a1-3)]GlcNAc
# How it was run: as §1
# [38] = target: GlcNAc(a1-6)Gal(b1-4)GlcNAc
# How it was run: as §1
binder,measurement,setting,value
PX14343B-bfa-546-20-546 (Bacteroides fragilis) (protein) CDLERYPLTDLSEETFWNSESNAELALTSLYRGSLTDGVEYNPSDWWSYHGMIMMEHLSDNAFDRRGENNPFFKISSGNLTADNAFIKRYWETSYKRIGYCNRFLVGIQNSSESEKKTRMIAEARFLRATQYFYLASYFKNVPLVENVLTGEEANNVTKTSQADILKWCVTEFTAAAADLPRFSAIPAGEAGRACKQAALAFLGRTCMLQKDWKSGAKAFHDIMELGDNAINANYQELFYPSTGTSNKENIFYIQYLENYLGTGLPQHALSAKDGGWSLVNPAADLYESYEFKDGTPFSYDDPRYDPSNLGKDRDPRLDYTIYYNGAIFMGTEYKMSPDYSAAKKEKLDYTSEASRTGFMMRKYFEESTPINDVQSANGLTPVIRYAEVLLGYLECLVEDNQTITQGILDETINAVRGRASVNMPPVTEVTPAKLREIVRHERRIELAMEGIRYWDIMRWGIAHEVLSQKIWGAPYPGSTQYATTTKEVDPTGNYRWYVGKRAFRNPTDYTWPIPQSEQNINPNLRD,glycan array binding signal (z-score),[1],-0.123
same,glycan array binding signal (z-score),[2],-0.121
same,glycan array binding signal (z-score),[3],-0.103
same,glycan array binding signal (z-score),[4],-0.128
same,glycan array binding signal (z-score),[5],-0.121
same,glycan array binding signal (z-score),[6],-0.125
same,glycan array binding signal (z-score),[7],-0.125
same,glycan array binding signal (z-score),[8],-0.124
same,glycan array binding signal (z-score),[9],-0.128
same,glycan array binding signal (z-score),[10],-0.104
same,glycan array binding signal (z-score),[11],-0.117
same,glycan array binding signal (z-score),[12],-0.109
same,glycan array binding signal (z-score),[13],-0.13
same,glycan array binding signal (z-score),[14],-0.13
same,glycan array binding signal (z-score),[15],-0.125
same,glycan array binding signal (z-score),[16],-0.136
same,glycan array binding signal (z-score),[17],-0.125
same,glycan array binding signal (z-score),[18],10.1
same,glycan array binding signal (z-score),[19],-0.122
same,glycan array binding signal (z-score),[20],-0.109
same,glycan array binding signal (z-score),[21],-0.131
same,glycan array binding signal (z-score),[22],-0.101
same,glycan array binding signal (z-score),[23],-0.13
same,glycan array binding signal (z-score),[24],-0.118
same,glycan array binding signal (z-score),[25],-0.111
same,glycan array binding signal (z-score),[26],-0.11
same,glycan array binding signal (z-score),[27],-0.118
same,glycan array binding signal (z-score),[28],-0.131
same,glycan array binding signal (z-score),[29],-0.122
same,glycan array binding signal (z-score),[30],-0.12
same,glycan array binding signal (z-score),[31],-0.128
same,glycan array binding signal (z-score),[32],-0.121
same,glycan array binding signal (z-score),[33],-0.123
same,glycan array binding signal (z-score),[34],-0.125
same,glycan array binding signal (z-score),[35],-0.115
same,glycan array binding signal (z-score),[36],-0.128
same,glycan array binding signal (z-score),[37],-0.102
same,glycan array binding signal (z-score),[38],-0.106
